# The other results are listed elsewhere or left out.
# Test system: HSkMC (human skeletal muscle cells)
# Experiment: cytotoxicity call (relative viability < 0.9)
# Details: 10 µM
row,Structure (SMILES),cytotoxicity call
1,C[C@@H]1CCCCO[C@@H](CN(C)C(=O)Nc2ccccc2)[C@H](C)CN([C@H](C)CO)C(=O)c2cc(NC(=O)c3ccncc3)ccc2O1,inactive
2,Cc1cc(O)c2c(c1)Cc1cccc(O)c1C2=O,inactive
3,O=C(NC1CCC1)[C@H]1[C@H](CO)[C@H]2Cn3c(cccc3=O)[C@H]2N1CC1CCOCC1,inactive
4,CN1CCN(C(=O)C[C@@H]2CC[C@H]3[C@@H](COC[C@H](O)CN3Cc3ccc(Oc4ccccc4)cc3)O2)CC1,inactive
5,C[C@@H]1CN([C@H](C)CO)C(=O)Cc2cc(NS(=O)(=O)c3ccc(Cl)cc3)ccc2O[C@H]1CN(C)Cc1ccc(Cl)c(Cl)c1,active
6,N#Cc1ccccc1C#CCO,inactive
7,COCC(=O)Nc1ccc2c(c1)C(=O)N(C)C[C@@H](OC)[C@@H](C)CN(C(=O)Cc1ccccn1)[C@H](C)CO2,inactive
8,COc1cc([C@H]2OC[C@](O)(Cc3ccc(O[C@@H]4O[C@H](CO)[C@@H](O)[C@H](O)[C@H]4O)c(OC)c3)[C@@H]2CO)ccc1O,inactive
